Reference: patent US20210238308A1 (Chugai, published 2021)

T1: PRYSPRY domain of mouse TRIM21 with N-terminal 6xHis tag (mouse)
T1 construct: Expressed in E. coli; also called mTRIM21; mouse TRIM21.PRYSPRY
T1 chain: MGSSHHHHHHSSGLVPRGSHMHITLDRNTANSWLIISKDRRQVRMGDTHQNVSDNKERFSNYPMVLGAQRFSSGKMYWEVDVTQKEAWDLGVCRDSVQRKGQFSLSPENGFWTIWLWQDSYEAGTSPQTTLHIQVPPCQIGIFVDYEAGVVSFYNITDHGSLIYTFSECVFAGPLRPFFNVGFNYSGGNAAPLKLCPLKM

T2: PRYSPRY domain of human TRIM21 with N-terminal 6xHis tag (human)
T2 construct: Expressed in E. coli; also called hTRIM21; human TRIM21.PRYSPRY
T2 chain: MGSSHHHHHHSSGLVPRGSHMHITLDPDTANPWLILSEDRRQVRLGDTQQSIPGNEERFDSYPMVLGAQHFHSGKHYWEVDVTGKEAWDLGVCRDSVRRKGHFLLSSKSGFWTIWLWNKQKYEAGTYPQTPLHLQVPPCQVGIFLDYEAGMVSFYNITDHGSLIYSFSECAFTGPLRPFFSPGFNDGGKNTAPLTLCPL


Key:
Experiment in all cases: SPR, Protein L capture
[1] = molecular target: T1, PRYSPRY domain of mouse TRIM21 with …
[2] = molecular target: T3, human FcRn (human, UniProt P55899 in part; P61769 in part, limits assumed)
T3 construct: also called hFcRn

[3] = molecular target: T2, PRYSPRY domain of human TRIM21 with …

Row | Binder | mTRIM21 binding level ratio (variant/control antibody) [1] | hFcRn binding level ratio (variant/control antibody) [2] | hTRIM21 binding level ratio (variant/control antibody) [3] | binding result [1]
1 | MRAH-G1d/MRAL-KT0 L309A (antibody, human IgG1, kappa, copies: 2 + 2) heavy: QVQLQESGPGLVRPSQTLSLTCTVSGYSITSDHAWSWVRQPPGRGLEWIGYISYSGITTYNPSLKSRVTMLRDTSKNQFSLRLSSVTAADTAVYYCARSLARTTAMDYWGQGSLVTVSS[human IgG1 constant region with L309A (EU numbers) omitted here] light: DIQMTQSPSSLSASVGDRVTITCRASQDISSYLNWYQQKPGKAPKLLIYYTSRLHSGVPSRFSGSGSGTDFTFTISSLQPEDIATYYCQQGNTLPYTFGQGTKVEIKRTVAAPSVFIFPPSDEQLKSGTASVVCLLNNFYPREAKVQWKVDNALQSGNSQESVTEQDSKDSTYSLSSTLTLSKADYEKHKVYACEVTHQGLSSPVTKSFNRGEC | 2 | 0.71 | 0.774 | –
2 | MRAH-G1d/MRAL-KT0 E345K (antibody, human IgG1, kappa) heavy: QVQLQESGPGLVRPSQTLSLTCTVSGYSITSDHAWSWVRQPPGRGLEWIGYISYSGITTYNPSLKSRVTMLRDTSKNQFSLRLSSVTAADTAVYYCARSLARTTAMDYWGQGSLVTVSS[human IgG1 constant region with E345K (EU numbers) omitted here] light: DIQMTQSPSSLSASVGDRVTITCRASQDISSYLNWYQQKPGKAPKLLIYYTSRLHSGVPSRFSGSGSGTDFTFTISSLQPEDIATYYCQQGNTLPYTFGQGTKVEIKRTVAAPSVFIFPPSDEQLKSGTASVVCLLNNFYPREAKVQWKVDNALQSGNSQESVTEQDSKDSTYSLSSTLTLSKADYEKHKVYACEVTHQGLSSPVTKSFNRGEC | 2.5 | 0.83 | – | –
3 | MRAH-G1d/MRAL-KT0 D312E (antibody, human IgG1, kappa, copies: 2 + 2) heavy: QVQLQESGPGLVRPSQTLSLTCTVSGYSITSDHAWSWVRQPPGRGLEWIGYISYSGITTYNPSLKSRVTMLRDTSKNQFSLRLSSVTAADTAVYYCARSLARTTAMDYWGQGSLVTVSS[human IgG1 constant region with D312E (EU numbers) omitted here] light: DIQMTQSPSSLSASVGDRVTITCRASQDISSYLNWYQQKPGKAPKLLIYYTSRLHSGVPSRFSGSGSGTDFTFTISSLQPEDIATYYCQQGNTLPYTFGQGTKVEIKRTVAAPSVFIFPPSDEQLKSGTASVVCLLNNFYPREAKVQWKVDNALQSGNSQESVTEQDSKDSTYSLSSTLTLSKADYEKHKVYACEVTHQGLSSPVTKSFNRGEC | 2.35 | 0.5 | 0.933 | –
4 | MRAH-G1d/MRAL-KT0 L432A (antibody, human IgG1, kappa) heavy: QVQLQESGPGLVRPSQTLSLTCTVSGYSITSDHAWSWVRQPPGRGLEWIGYISYSGITTYNPSLKSRVTMLRDTSKNQFSLRLSSVTAADTAVYYCARSLARTTAMDYWGQGSLVTVSS[human IgG1 constant region with L432A (EU numbers) omitted here] light: DIQMTQSPSSLSASVGDRVTITCRASQDISSYLNWYQQKPGKAPKLLIYYTSRLHSGVPSRFSGSGSGTDFTFTISSLQPEDIATYYCQQGNTLPYTFGQGTKVEIKRTVAAPSVFIFPPSDEQLKSGTASVVCLLNNFYPREAKVQWKVDNALQSGNSQESVTEQDSKDSTYSLSSTLTLSKADYEKHKVYACEVTHQGLSSPVTKSFNRGEC | 2.38 | – | 0.575 | –
5 | MRAH-G1d/MRAL-KT0 L432R (antibody, human IgG1, kappa, copies: 2 + 2) heavy: QVQLQESGPGLVRPSQTLSLTCTVSGYSITSDHAWSWVRQPPGRGLEWIGYISYSGITTYNPSLKSRVTMLRDTSKNQFSLRLSSVTAADTAVYYCARSLARTTAMDYWGQGSLVTVSS[human IgG1 constant region with L432R (EU numbers) omitted here] light: DIQMTQSPSSLSASVGDRVTITCRASQDISSYLNWYQQKPGKAPKLLIYYTSRLHSGVPSRFSGSGSGTDFTFTISSLQPEDIATYYCQQGNTLPYTFGQGTKVEIKRTVAAPSVFIFPPSDEQLKSGTASVVCLLNNFYPREAKVQWKVDNALQSGNSQESVTEQDSKDSTYSLSSTLTLSKADYEKHKVYACEVTHQGLSSPVTKSFNRGEC | 1.13 | 0 | – | –
6 | MRAH-G1d/MRAL-KT0 M428R (antibody, human IgG1, kappa, copies: 2 + 2) heavy: QVQLQESGPGLVRPSQTLSLTCTVSGYSITSDHAWSWVRQPPGRGLEWIGYISYSGITTYNPSLKSRVTMLRDTSKNQFSLRLSSVTAADTAVYYCARSLARTTAMDYWGQGSLVTVSS[human IgG1 constant region with M428R (EU numbers) omitted here] light: DIQMTQSPSSLSASVGDRVTITCRASQDISSYLNWYQQKPGKAPKLLIYYTSRLHSGVPSRFSGSGSGTDFTFTISSLQPEDIATYYCQQGNTLPYTFGQGTKVEIKRTVAAPSVFIFPPSDEQLKSGTASVVCLLNNFYPREAKVQWKVDNALQSGNSQESVTEQDSKDSTYSLSSTLTLSKADYEKHKVYACEVTHQGLSSPVTKSFNRGEC | 0.078 | 0.05 | – | –

Second part, the binder after the results:

Row | mTRIM21 binding level ratio (variant/control antibody) [1] | hFcRn binding level ratio (variant/control antibody) [2] | hTRIM21 binding level ratio (variant/control antibody) [3] | binding result [1] | Binder
7 | -0.203 | – | -0.028 | – | MRAH-G1d/MRAL-KT0 H433S (antibody, human IgG1, kappa, copies: 2 + 2) heavy: QVQLQESGPGLVRPSQTLSLTCTVSGYSITSDHAWSWVRQPPGRGLEWIGYISYSGITTYNPSLKSRVTMLRDTSKNQFSLRLSSVTAADTAVYYCARSLARTTAMDYWGQGSLVTVSS[human IgG1 constant region with H433S (EU numbers) omitted here] light: DIQMTQSPSSLSASVGDRVTITCRASQDISSYLNWYQQKPGKAPKLLIYYTSRLHSGVPSRFSGSGSGTDFTFTISSLQPEDIATYYCQQGNTLPYTFGQGTKVEIKRTVAAPSVFIFPPSDEQLKSGTASVVCLLNNFYPREAKVQWKVDNALQSGNSQESVTEQDSKDSTYSLSSTLTLSKADYEKHKVYACEVTHQGLSSPVTKSFNRGEC
8 | 2.57 | 1.14 | 1.14 | – | MRAH-G1d/MRAL-KT0 D312A (antibody, human IgG1, kappa, copies: 2 + 2) heavy: QVQLQESGPGLVRPSQTLSLTCTVSGYSITSDHAWSWVRQPPGRGLEWIGYISYSGITTYNPSLKSRVTMLRDTSKNQFSLRLSSVTAADTAVYYCARSLARTTAMDYWGQGSLVTVSS[human IgG1 constant region with D312A (EU numbers) omitted here] light: DIQMTQSPSSLSASVGDRVTITCRASQDISSYLNWYQQKPGKAPKLLIYYTSRLHSGVPSRFSGSGSGTDFTFTISSLQPEDIATYYCQQGNTLPYTFGQGTKVEIKRTVAAPSVFIFPPSDEQLKSGTASVVCLLNNFYPREAKVQWKVDNALQSGNSQESVTEQDSKDSTYSLSSTLTLSKADYEKHKVYACEVTHQGLSSPVTKSFNRGEC
9 | – | 0 | – | no binding (tested: 100 nM) | MRAH-G1d/MRAL-KT0 L314E (antibody, human IgG1, kappa, copies: 2 + 2) heavy: QVQLQESGPGLVRPSQTLSLTCTVSGYSITSDHAWSWVRQPPGRGLEWIGYISYSGITTYNPSLKSRVTMLRDTSKNQFSLRLSSVTAADTAVYYCARSLARTTAMDYWGQGSLVTVSS[human IgG1 constant region with L314E (EU numbers) omitted here] light: DIQMTQSPSSLSASVGDRVTITCRASQDISSYLNWYQQKPGKAPKLLIYYTSRLHSGVPSRFSGSGSGTDFTFTISSLQPEDIATYYCQQGNTLPYTFGQGTKVEIKRTVAAPSVFIFPPSDEQLKSGTASVVCLLNNFYPREAKVQWKVDNALQSGNSQESVTEQDSKDSTYSLSSTLTLSKADYEKHKVYACEVTHQGLSSPVTKSFNRGEC
